Drawing on the supplement of paper PMC10126150, this text covers switch fluorescence ratio for 120 sequences.

Sequences with one replicate were seen in a single cluster, so their values are uncertain.

This data set deals with ATP. Description: switch fluorescence ratio, 500 uM ATP over buffer (Cy3 cluster intensity, sum of 5 cycles each) (fold (ratio)); higher = stronger signal-on switching upon ATP binding; sequences stand for … in TCGTCGGCAGCGTCAGATGTGTATAAGAGACAGTTTTTTTTTTTTTTTTTTTTTTTTT…TC. To be noted: aptamer strand: ATP DNA aptamer (quencher-CACCTGGGGGAGTATTGCGGAGGAAGG + anchor), 100 nM annealed; ATP concentration: 500 uM; one replicate. Summed up:
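Imaging in selection buffer was followed by imaging after 15 min with 500 uM ATP at 22 °C, for Cy3-labelled switching-strand clusters annealed to 100 nM quencher-labelled ATP aptamer on a modified Illumina MiSeq flow-cell. Five of these buffer/ATP cycles ran, separated by NaOH stripping and re-annealing. The fluorescence ratio per cluster is summed target-cycle over summed buffer-cycle Cy3 intensity, averaged per switch-domain sequence; clusters outside 100-1000 RFU were removed.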
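Note: ATP exposure 15 min at 22 °C before imaging.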

Turning to CCCTAGGATC, the switch fluorescence ratio came to 1.02.

On to AAGGGAGCGT, for which the switch fluorescence ratio worked out at 0.984.

As to TGAAAAAAGT, the switch fluorescence ratio came to 1.

As for TGGGGGCA, the switch fluorescence ratio worked out at 1.

Turning to ATGGCGTGTA, the switch fluorescence ratio is 1.02.

As to GCGTAGTTGT, the switch fluorescence ratio amounted to 0.971.

Turning to CATGTTAAAG, the switch fluorescence ratio came out at 0.99.

In the case of CTAGTGTTA, the switch fluorescence ratio worked out at 0.995.

As to CTACCATTGG, the switch fluorescence ratio was 0.968.

In the case of CTAGGATACG, the switch fluorescence ratio came out at 0.982.

With TGTCTATAGC, the switch fluorescence ratio stood at 1.02.

Turning to AGCATGCGTT, the switch fluorescence ratio worked out at 1.02.

On to CCGGGGACTT, for which the switch fluorescence ratio came out at 1.09.

Take CATCAACCT: the switch fluorescence ratio stood at 1.73.

Consider ACTGGTCAGA, for which the switch fluorescence ratio is 0.958.

For the sequence CTTGGCGGTA, the switch fluorescence ratio came to 1.

CTGGTCCGAA: the switch fluorescence ratio worked out at 0.992.

Take ATCAAATCTC: the switch fluorescence ratio was 0.999.

As to TGCCTGGGAT, the switch fluorescence ratio stood at 0.967.

As for TTTAGAAAAG, the switch fluorescence ratio turned out to be 1.04.

With GCATTATGCT, the switch fluorescence ratio was determined as 0.997.

As to CCTGTAATAA, the switch fluorescence ratio came to 1.72.

As to CGTACGAT, the switch fluorescence ratio was determined as 1.01.

Consider CCCAGGCGC, for which the switch fluorescence ratio was 1.88.

For the sequence CAGACAATAA, the switch fluorescence ratio is 1.44.

Regarding TAATTCCTCG, the switch fluorescence ratio came to 1.13.

On to TCCCACATAA, for which the switch fluorescence ratio is 1.09.

For TCTTTTCGCT, the switch fluorescence ratio was found to be 0.981.

On to GTAGGCACCT, for which the switch fluorescence ratio amounted to 1.02.

For the sequence ATATAAGGCA, the switch fluorescence ratio came to 0.977.

Take GGGAAGTGCG: the switch fluorescence ratio is 0.949.

On to GACTGTTGGT, for which the switch fluorescence ratio was determined as 0.953.

Consider TAGTACTAGT, for which the switch fluorescence ratio is 1.05.

For TCAGCGCGTT, the switch fluorescence ratio was determined as 0.996.

Turning to ATTTACATCT, the switch fluorescence ratio was determined as 1.07.

As to AAGGGATGGT, the switch fluorescence ratio worked out at 1.03.

With GCGCTCTATG, the switch fluorescence ratio was 0.997.

As for CGTTCTGACC, the switch fluorescence ratio stood at 1.09.

CGTCGGCTCT: the switch fluorescence ratio stood at 1.01.

On to AGCTCCATCA, for which the switch fluorescence ratio turned out to be 1.03.

As for ATAGGGTTGT, the switch fluorescence ratio worked out at 1.03.

Take ACAAAAGCGT: the switch fluorescence ratio is 1.04.

Consider TGGGTGTGGC, for which the switch fluorescence ratio amounted to 1.

Consider TTTATGACGG, for which the switch fluorescence ratio came to 0.983.

As to GGACTACAA, the switch fluorescence ratio came to 1.02.

As to TCGGACTGTG, the switch fluorescence ratio came to 0.983.

For GATTTCCGGA, the switch fluorescence ratio is 0.994.

Regarding CTGAGCAGTC, the switch fluorescence ratio worked out at 1.45.

With ATGGTTTAAA, the switch fluorescence ratio stood at 0.97.

For the sequence AAAAAGAGTG, the switch fluorescence ratio was determined as 0.968.

In the case of CTACAAGGA, the switch fluorescence ratio was found to be 1.08.

As to CGCTGGAATG, the switch fluorescence ratio was found to be 1.04.

For GGTTAATACG, the switch fluorescence ratio worked out at 0.985.

In the case of TACTCACCGG, the switch fluorescence ratio turned out to be 1.48.

Take CTATATTAAT: the switch fluorescence ratio amounted to 0.974.

On to AGTGGCGCGC, for which the switch fluorescence ratio is 0.98.

For the sequence GGCCCAACAA, the switch fluorescence ratio worked out at 1.06.

As to TTGTTTATTG, the switch fluorescence ratio was found to be 0.994.

For CCTTTGCGAA, the switch fluorescence ratio stood at 2.86.

AATTAGAACG: the switch fluorescence ratio is 0.979.

Take CACACTGCAG: the switch fluorescence ratio turned out to be 1.03.

Consider CTATAAAACC, for which the switch fluorescence ratio was 1.05.

For the sequence GGTATGTGAA, the switch fluorescence ratio came to 0.999.

Turning to AATTTCGCTG, the switch fluorescence ratio came to 1.

Regarding CATAGGTA, the switch fluorescence ratio worked out at 1.01.

ATGACCTGTG: the switch fluorescence ratio is 0.992.

For ATGAGGCAAT, the switch fluorescence ratio was 4.54.

Turning to AATTTCTCAC, the switch fluorescence ratio is 1.02.

With GAGTAATGTG, the switch fluorescence ratio turned out to be 1.01.

Regarding TTAGTTAGCA, the switch fluorescence ratio came to 1.02.

On to TGGTCACAGG, for which the switch fluorescence ratio was 1.03.

CCACGTAGTT: the switch fluorescence ratio was 1.02.

As to ACTTTACCGA, the switch fluorescence ratio came out at 1.32.

As for TAACTATAAT, the switch fluorescence ratio was determined as 1.02.

Take CCCTGGATGT: the switch fluorescence ratio came out at 1.09.

Regarding GATATGTTAG, the switch fluorescence ratio is 1.01.

On to AATTCAGTGA, for which the switch fluorescence ratio came out at 1.

For the sequence AGTGTTTCGC, the switch fluorescence ratio was found to be 1.03.

Turning to TCTTGGGTGA, the switch fluorescence ratio amounted to 1.03.

With ATCCTATTGC, the switch fluorescence ratio came to 0.98.

As for TTGAAGACCC, the switch fluorescence ratio was determined as 1.03.

As for CCAGAACTGC, the switch fluorescence ratio is 0.98.

As for TACGATGCAT, the switch fluorescence ratio was found to be 5.31.

Regarding GGCTTGGTTG, the switch fluorescence ratio amounted to 0.992.

In the case of CATGCAGAAG, the switch fluorescence ratio was determined as 1.05.

As to GGGTAACTCA, the switch fluorescence ratio is 0.973.

Regarding TGCGTATGTG, the switch fluorescence ratio is 0.953.

For the sequence CTGCCACGAC, the switch fluorescence ratio is 1.52.

As to GCTATTGACT, the switch fluorescence ratio worked out at 1.03.

Consider AGCAGGGTAA, for which the switch fluorescence ratio is 1.05.

For the sequence GCAGACTTAA, the switch fluorescence ratio was found to be 1.06.

Turning to TGTCACTTTT, the switch fluorescence ratio was 1.01.

On to ATACTAAGGG, for which the switch fluorescence ratio amounted to 1.

As to AATTATGGTA, the switch fluorescence ratio was found to be 1.02.

As for CCCCTTAGAG, the switch fluorescence ratio is 1.03.

Take TTACCTGAGG: the switch fluorescence ratio worked out at 1.01.

Turning to TTCTTCTCGC, the switch fluorescence ratio came to 0.94.

As for TTGATGTTCT, the switch fluorescence ratio stood at 0.962.

With CTGTACCAGG, the switch fluorescence ratio turned out to be 1.78.

As for CGAAGGTTGT, the switch fluorescence ratio worked out at 0.994.

AAAGTTACAC: the switch fluorescence ratio was determined as 1.13.

As to GGCGTTCAGA, the switch fluorescence ratio is 0.992.

On to CTGGCAGCCT, for which the switch fluorescence ratio worked out at 0.973.

On to AACCCATGGG, for which the switch fluorescence ratio worked out at 1.01.

Take CTCATGTCGC: the switch fluorescence ratio came to 0.96.

In the case of TCATGTGCTA, the switch fluorescence ratio was 1.03.

In the case of GACATTGAGT, the switch fluorescence ratio is 1.03.

With CAGGACAGCG, the switch fluorescence ratio is 1.01.

For the sequence CCTTGCTAGC, the switch fluorescence ratio was determined as 2.5.

On to TCCCCTTCAG, for which the switch fluorescence ratio amounted to 1.02.

CATAAATGAG: the switch fluorescence ratio was 0.993.

In the case of CTTACTGAGG, the switch fluorescence ratio turned out to be 1.03.

Take TATGTCGTCC: the switch fluorescence ratio is 1.07.

Take TATTCGGCCG: the switch fluorescence ratio turned out to be 1.04.

Take CATCTAGTAT: the switch fluorescence ratio was 1.03.

Consider TTCATGCTGT, for which the switch fluorescence ratio turned out to be 0.991.

Take TAGGGCTTCT: the switch fluorescence ratio was 0.994.

In the case of ACTTGCTCGG, the switch fluorescence ratio came out at 1.12.

Turning to GGATGCAGT, the switch fluorescence ratio was determined as 0.962.

Regarding TTATTCTCTT, the switch fluorescence ratio was 1.
